# Results: PubChem BioAssay (NCI)
# Values joined by “and” are separate entries in the source; they are usually repeats but may differ in a detail not shown here. Identical values can stand only once.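 Test compounds were applied to cells in 96-well plates for 48 hours at 5 doses. GI50 = concentration required for 50% inhibition of growth. TGI denotes the concentration required for complete inhibition of growth.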 Numbered stars: 1 amine (or outer) side, 2 acyl side, 3 side chain; on linkers, the order of the positions; unused ones are H or OH. Bridge positions count the residues as written; N and C are the ends. Square brackets hold non-standard residues; d marks the D form. Peptide text beside a SMILES is read from it. I, II: the chains in the order shown. Actinocin(9to1) = Cc1c2oc3c(C)ccc(C(=O)[*:1])c3nc-2c(C(=O)[*:2])c(N)c1=O; NMeF = CN[CH](Cc1ccccc1)C(=O)O; Sar = CNCC(=O)O
# System: NCI-H322M lung
# Experiment: NCI-60 cell line screen, 48 h
Structure (SMILES),TGI,GI50
CC1(C)CCc2c(c(N=Nc3ccc(F)cc3)c3ccccc3c2O)O1,> 100 µM,
CCN1CCC(O)(/C=C/c2ccc(OC)cc2)C(C(=O)/C=C/c2ccc(OC)cc2)C1 (stereo not drawn),27.3 µM,
COc1ccc(C(=O)/C=C/c2cc(O)c(O)cc2F)c(OC)c1,18.1 µM,
CCN(CC)C(=S)[S][Bi]([S]C(=S)N(CC)CC)[S]C(=S)N(CC)CC,3.14 µM,1.75 µM
O=C(N/N=C/c1cc(Br)cc(Br)c1[O-])c1ccccc1O.O=C(N/N=C/c1cc(Br)cc(Br)c1[O-])c1ccccc1O.[Ni+2],2.22 µM,
Oc1c(CN2CCN(c3ccccc3)CC2)cc(Br)c2cccnc12,36.3 µM,
COc1ccc(-c2nn(-c3ccc(NC(=O)Nc4ccc(Cl)c(C(F)(F)F)c4)cc3)cc2-c2ccncc2)cc1Cl,63.7 µM,3.05 µM
O=C1CC2CCC(C1)S2=O (stereo not drawn),> 100 µM,
C[C@H]1COC2=C1C(=O)C(=O)c1c2ccc2c1CCCC2(C)C,4.13 µM,
Cc1ccc(Sc2cc3c(oc2=O)-c2ccccc2OC3O)cc1 (stereo not drawn),53.3 µM,25.1 µM
O=C1NCCS(=O)(=O)N2CCC[C@@H]12,> 100 µM,
C=C(c1ccccc1)c1ccccc1-c1cc(-c2ccccc2)cc(-c2ccccc2)n1,> 100 µM,
CC(=O)/C(=C/N1CCNC1=S)C(=O)Nc1ccccc1C,> 100 µM,
Cc1ccc(-n2cc([Si](C)(C)C)nn2)s1,> 100 µM,
Oc1ccc(N=Nc2ccccn2)c(O)c1,> 100 µM,1.16 µM
CCCCCCCCCCCCCC(=O)N(CCCCCCCCC)CC(O)C(O)C(OC1OC(CO)C(O)C(O)C1O)C(O)CO (stereo not drawn),32.3 µM,
COC(=O)C(C)NC(=O)c1ccccc1I(OS(=O)(=O)C(F)(F)F)c1ccccc1 (stereo not drawn),49.7 µM,21.4 µM
Oc1ccc(Cc2cc(Cl)cc(Cl)c2O)cc1Cl,36.7 µM,
CCOC(=O)c1c(-c2cccc3ccccc23)c(C#N)c(=S)n(C2OC(COC(C)=O)C(OC(C)=O)C(OC(C)=O)C2OC(C)=O)c1C (stereo not drawn),> 100 µM,
O=S1Nc2c(Cl)cc(Cl)c(Cl)c2S1 (stereo not drawn),> 100 µM,
CC1=C(C)C(=O)C(C2=CC(=O)C=CC2=O)=C(C2=CC(=O)C=CC2=O)C1=O,> 100 µM,
CCCCCn1c(C)cc(/C=C\c2ccc3cc(C)ccc3[n+]2C)c1C,1.67 µM,0.436 µM
O=[N+]([O-])c1ccc(C=NC23CC4CC(CC(C4)C2)C3)cc1,> 100 µM,
COc1cc(NC(=O)C2=C(N3CCOCC3)/C(=C/c3ccc(Cl)cc3)CC2)cc(OC)c1OC,> 100 µM,> 100 µM
Cc1ccc([N+](=O)[O-])c2c(NCC(O)CO)ccnc12 (stereo not drawn),> 100 µM,

Structure (SMILES),TGI,GI50
"Cc1c2oc3c(C)ccc(C(=O)NC4C(=O)NC(C(C)C)C(=O)N5CCCC5C(=O)N(C)CC(=O)N(C)C(Cc5ccccc5)C(=O)OC4C)c3nc-2c(C(=O)NC2C(=O)NC(C(C)C)C(=O)N3CCCC3C(=O)N(C)CC(=O)N(C)C(Cc3ccccc3)C(=O)OC2C)c(N)c1=O (stereo not drawn) (I: TVP[Sar][NMeF] / II: TVP[Sar][NMeF]; ester I:1-I:C, II:1-II:C; linker I:N-II:N via Actinocin(9to1); configuration not given here)",< 0.0432 µM and 0.422 µM,
COc1ccc2c(c1)OC[C@@H]1c3cc(O)c(OCc4ccccc4)cc3O[C@H]21,> 100 µM,
C=C1C(=O)O[C@H]2[C@H]1CC/C(COC(=O)NCc1ccc(Cn3c(=O)sn(-c4ccccc4)c3=O)cc1)=C\CC[C@@]1(C)O[C@@H]21,24.7 µM,12.3 µM
O=Nc1c(-c2c(O)[nH]c3ccc(Br)cc23)[nH]c2ccccc12,95.1 µM,3.98 µM
C=CCC(C(=O)Nc1cccc2[nH]cnc12)C(=O)OCC (stereo not drawn),> 100 µM,
COc1ccc(Nc2nc(N)c(C(=O)c3cccs3)s2)cc1,> 68.7 µM,
COc1ccc(Sc2ccccc2N)cc1,> 100 µM,
N.N.O=P([O-])([O-])C1(P(=O)([O-])[O-])CCCCCN1.[Pt+2],> 100 µM,> 100 µM
CC#Cc1nc(Nc2cc(C)[nH]n2)c2ccccc2n1,38.1 µM,11 µM
O=C(O)C(Oc1nc(=S)[nH]c(=S)[nH]1)(c1ccc(Cl)cc1)c1ccc(Cl)cc1,> 100 µM,
O=C1CSc2cc([N+](=O)[O-])ccc2N1,> 100 µM,
CCN(Cc1c(Cl)cccc1Cl)c1ccc(CO)c(Cl)c1,26.2 µM,12.9 µM
COC(=O)c1nn(C(=N)c2ccc(Cl)cc2)c2c1CCC2,> 100 µM,
CC1=NN(c2nc(N)nc(/C=C\c3ccc([N+](=O)[O-])s3)n2)C(C)(C)C1,> 100 µM,> 100 µM
Cc1cc(S(=O)(=O)/N=C(/NN)NNc2cccc(C(F)(F)F)n2)c(S)cc1Cl,88.3 µM,
CS(=O)(=O)N(c1cc(-c2ccc3ncnc(Nc4cccc(Cl)c4)c3c2)cnc1Cl)S(C)(=O)=O,5.36 µM,0.882 µM
CC1=NN(c2nc(N)nc(CF)n2)C(C)(C)C1,> 100 µM,
COC(=O)C1=C(C(=O)OC)SC2(S1)C(C(=O)OC)=C(C(=O)OC)Sc1c2ssc1=NC(C)(C)C,17.5 µM,
COc1cc(Br)c(CC2C3=C(CCN2C(=O)C2CCC2)CC(=O)CC3)cc1O (stereo not drawn),> 100 µM,
C=C1C(=O)OC2CC3(C)OC3CC/C(C)=C/C(OC(C)=O)C12 (stereo not drawn),27.8 µM,
CC(C)=CCCC(C)C1=C(O)C(=O)C(C)=CC1=O (stereo not drawn),> 65.7 µM,
CCCCNC(=O)/N=C/c1c(O)c2ccccc2oc1=O,> 100 µM,
Cc1c(C(=O)O)n2cnnc2c2ccccc12,> 100 µM,
CCCCCCCCCCC(C)CCCCCCC(=O)O (stereo not drawn),> 100 µM,
